Out of some 410,000 compounds screened, about 7,200 (1.8%) were called active. Inconclusive results, whose numbers are uncertain, are shown with a selection of clear calls. Calls come from the whole dose curve; as a rule, active = well fitted activation curve with a large enough effect; inconclusive = small, poorly fitted or top-dose-only effect, or another doubt; inactive = no such curve, though single readings can be large or run the other way. No potency is given beside an inconclusive call; the fits are too rough.
experiment: qHTS of TDP-43 Inhibitors; conditions: TDP-43 expressing yeast growth rescue, BacTiter-Glo, 24 h; series mostly up to 46.1 µM; note: nearly all actives have a fitted effect of over 50% in size
Outline: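 Luminescence from BacTiter-Glo reports growth of TDP-43-expressing yeast after 24 hr at 30 deg C with compound. Cells were raffinose-pregrown to mid-log, then seeded in galactose medium at OD600=0.02.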
Potency is the fitted concentration of half-maximal effect; tags give direction and shape of the fitted curve.

SMILES | Potency
Cc1cccc(NC(=O)c2ccc(Cl)c(S(=O)(=O)N3CCCCC3)c2)n1 | inconclusive [activator, single point]
CCOC(=O)c1cc(-c2ccccc2)n(CC(=O)NC(C)(C)C)c1C | inconclusive [activator, partial curve]
COc1cc(-c2nc(-c3ccccc3)c(-c3cccs3)[nH]2)cc(OC)c1OC | inactive
COC(=O)C1CCN(C(=O)c2sc3nc(-c4ccccc4)cn3c2C)CC1 | inconclusive [activator, partial curve]
O=C(Nc1ccc(OC(F)(F)F)cc1)c1ccc2c(c1)no[n+]2[O-] | inconclusive [activator, single point]
CN(C)/C=N/c1c(C#N)cnn1-c1ncnc2sc(-c3ccccc3)cc12 | inconclusive [activator, partial curve, poor fit]
Cc1ccc(S(=O)(=O)n2nc(OC(=O)c3cccc(F)c3)cc2N)cc1 | inconclusive [activator, single point]
Cc1ccc(CCNC(c2ccc(F)cc2)c2nnc(-c3ccccc3Cl)o2)cc1 (centres undefined) | inactive
CN(Cc1c(F)cccc1Cl)c1nnnn1-c1ccccc1 | inconclusive [activator, partial curve, poor fit]
Cc1ccc(C(=O)NC(=S)Nc2ccccc2C)cc1 | inconclusive [activator, single point]
Cc1cc(C(=O)N2CCCC(CO)(Cc3ccc(F)cc3)C2)c(C)o1 (centres undefined) | inconclusive [activator, single point]
Cc1ccc(/C(N)=N/OC(=O)c2ccc(F)cc2)cc1 | inconclusive [activator, single point]
CS/C(N)=N/C(=S)Nc1cccc(Cl)c1 | inconclusive [activator, single point]
COc1ccc(CNC(=O)CCc2cn(C)c3ccccc23)cc1 | inconclusive [activator, partial curve]
CCCN1C(=O)/C(=C\c2ccncc2)SC1=Nc1ccccc1 | inconclusive [activator, single point]
Cc1cc(=O)n2nc(N3CCCC(C(=O)NC(C)c4ccccc4)C3)sc2n1 (centres undefined) | inconclusive [activator, full curve, poor fit]
COc1ccc(C)cc1CN1C(=O)c2ccccc2C1=O | inconclusive [activator, single point]
Oc1[nH]c2ccccc2c1C=Nc1ccc2c(c1)OCCO2 | inconclusive [activator, full curve, poor fit]
COc1ccc(NC(=O)CCC(=O)OCc2ccc(C(=O)Oc3ccc(Cl)cc3)cc2)cc1 | inconclusive [activator, single point]
O=C(CSc1ccccn1)N1CCN(c2cccc(Cl)c2)CC1 | inconclusive [activator, full curve]
Cc1nn(-c2ccccc2)c(N)c1N=Nc1ccccc1 | inconclusive [activator, partial curve]
COc1cccc2cc(-c3csc(CCn4nc(C)cc4C)n3)c(=O)oc12 | inconclusive [activator, partial curve]
COc1ccc([C@H]2C[C@@H](O)[C@H](n3cc(C4CC4)nn3)CN2Cc2cccs2)cc1 | inactive

SMILES | Potency
CCn1c(C(=O)N2CCC(C(=O)N3CCN(c4cc(C)ccc4C)CC3)CC2)cc2sccc21 | inconclusive [activator, partial curve]
Cc1ccc(C2=Nc3ccccc3N(CC(=O)Nc3ccccc3F)C(=O)C2)cc1C | inconclusive [activator, single point]
COc1ccc(NC(=S)NNC(=O)COc2ccc(Cl)cc2Cl)cc1 | inactive
CC(=O)Oc1oc(-c2ccccc2)nc1C=Nc1ccccc1 | inactive
C=CS(=O)(=O)c1ccc(Oc2ccc(S(=O)(=O)C=C)cc2)cc1 | inconclusive [activator, full curve, poor fit]
COc1ccc(C(=S)N2CCOCC2)cc1OC(=O)c1ccc(C)cc1 | inconclusive [activator, single point]
Cc1cc(C)nc(/N=C(\N)Nc2cccc(OCc3ccccc3)c2)n1 | inactive
COc1ccc2nc(SCC(=O)NC(C)C)[nH]c2c1 | inactive
COn1c2c(c3c4nonc4ccc31)CCCC2 | inconclusive [activator, single point]
CNC(=S)N/N=C(\C)c1ccc2c(c1)OCCO2 | inconclusive [activator, partial curve]
CCc1nn(CCCC(=O)N2CCN(c3cc(Cl)ccc3C)CC2)c(=O)c2cc3occc3n12 | active: 35.5 µM
Cc1ccoc1C(=O)Nc1ccc2ccccc2c1 | inconclusive [activator, single point]
O=C(Nc1ccc(Br)cc1)N1CCCCC1 | inconclusive [activator, partial curve]
COc1ccc(C)cc1NC(=O)ON=C1CCCCC1 | inconclusive [activator, full curve, poor fit]
COc1ccc2nc(NC(=O)Nc3ccccc3)sc2c1 | inconclusive [activator, partial curve]
CSc1nc2ccc3nc(NC(=O)c4ccc(C)cc4)sc3c2s1 | inconclusive [activator, partial curve]
O=S(=O)(c1ccc(Cl)cc1)N1CCN(c2ncnc3sccc23)CC1 | inconclusive [activator, single point]
O=C(COC(=O)c1cccnc1Cl)c1cccc(Cl)c1 | active: 11.2 µM
COc1cc(CNc2nc3c(C)cc(C)cc3s2)ccc1O | inconclusive [activator, single point]
CCC1Oc2ccc(C)cc2N(CC(=O)NCc2ccc(OC)cc2)C1=O (centres undefined) | inconclusive [activator, partial curve, poor fit]
COc1ccc(Cl)cc1CC=NNC(=O)c1cccc(C)c1O | inconclusive [activator, partial curve, poor fit]
Cc1cccc(Oc2cc(N)cc([N+](=O)[O-])c2)c1 | inconclusive [activator, single point]
CC(C)c1nc(NCC2CCCO2)c(C#N)c2c1COC(C)(C)C2 (centres undefined) | inconclusive [activator, single point]

SMILES | Potency
COc1cc(NC(=O)CCc2nc3cccnc3n2Cc2cccs2)cc(OC)c1OC | inactive
COc1cc(/C=C/C(=O)OCC(=O)N2c3ccccc3CC2C)cc(OC)c1OC (centres undefined) | inconclusive [activator, partial curve]
O=C(CCc1nc2cccnc2n1-c1ccccc1)Nc1ccc(Cl)c(Cl)c1 | inactive
O=C(NCCNc1ccc([N+](=O)[O-])cc1C(F)(F)F)c1ccccc1 | active: 22.4 µM
OC[C@@H]1CN(Cc2cccs2)C[C@H](n2cnc3c(N4CCCC4)ncnc32)O1 | inactive
COc1cccc(CC2CC(=O)N(CCc3ccc4c(c3)OCO4)C2=O)c1 (centres undefined) | active: 20 µM
CCc1ccccc1N(C)C(=O)c1cn(-c2cccc(OC)c2)c(=O)c2ccccc12 | active: 20 µM
CCCN1C(=O)C2(OCCO2)c2cc(Cl)ccc21 | inconclusive [activator, partial curve]
Cc1nn(C)c2c1c(C(F)(F)F)cc(=O)n2CC(=O)N1CCCCC1C (centres undefined) | inactive
Cc1nc(-c2ccc(S(=O)(=O)N3CCN(c4cccc(C)c4C)CC3)cc2)co1 | inactive
COc1ccc(NC(=O)C[C@H]2C(=O)N(c3ccc(Br)cc3)C[C@@H]2c2ccc(OC)cc2)cc1 | inconclusive [activator, single point]
CCOC(=O)c1nc(Nc2ccccc2OC)c2ccccc2n1 | inconclusive [activator, single point]
CCc1ccccc1OCC(=O)N1CCN(c2ncccn2)CC1 | inconclusive [activator, partial curve]
COc1ccc(C)cc1NC(=O)CSc1nnc(COc2ccccc2)n1Cc1ccco1 | inconclusive [activator, single point]
Cc1ccc2ccc(C)[n+](CCCS(=O)(=O)[O-])c2c1 | inconclusive [activator, partial curve]
Cc1oc(CC(C)C)cc1C(=O)Nc1cccc2ccccc12 | inconclusive [activator, single point]
CCCCNC(=O)C1CC(c2c(Cl)cccc2Cl)=NO1 (centres undefined) | inconclusive [activator, partial curve]
O=C(COC(=O)c1ccc(Cl)s1)c1ccc[nH]1 | inconclusive [activator, single point]
CN(CC(=O)Nc1ccccc1Br)C(=O)c1cccc(S(=O)(=O)N2CCc3ccccc32)c1 | inconclusive [activator, partial curve]
CC(=O)Nc1cccc(C(=O)OCCCOc2ccc(F)cc2)c1 | inconclusive [activator, partial curve]
Cc1cc(C)c(NC(=O)CN2C(=O)NC3(CCCc4ccccc43)C2=O)c(Cl)c1 (centres undefined) | inactive
COc1ccccc1NC(=O)OCC#CCOC(=O)Nc1ccccc1OC | inactive
O=C(CCC1N=C2c3ccccc3N=C(SCc3ccccc3F)N2C1=O)NCCc1ccccc1 (centres undefined) | inconclusive [activator, partial curve, poor fit]

Source: PubChem BioAssay AID652104 (National Center for Advancing Translational Sciences (NCATS), 2013)
